One assay has as its target T1, JIP4-GFP (UniProt O60271).
T1 sequence: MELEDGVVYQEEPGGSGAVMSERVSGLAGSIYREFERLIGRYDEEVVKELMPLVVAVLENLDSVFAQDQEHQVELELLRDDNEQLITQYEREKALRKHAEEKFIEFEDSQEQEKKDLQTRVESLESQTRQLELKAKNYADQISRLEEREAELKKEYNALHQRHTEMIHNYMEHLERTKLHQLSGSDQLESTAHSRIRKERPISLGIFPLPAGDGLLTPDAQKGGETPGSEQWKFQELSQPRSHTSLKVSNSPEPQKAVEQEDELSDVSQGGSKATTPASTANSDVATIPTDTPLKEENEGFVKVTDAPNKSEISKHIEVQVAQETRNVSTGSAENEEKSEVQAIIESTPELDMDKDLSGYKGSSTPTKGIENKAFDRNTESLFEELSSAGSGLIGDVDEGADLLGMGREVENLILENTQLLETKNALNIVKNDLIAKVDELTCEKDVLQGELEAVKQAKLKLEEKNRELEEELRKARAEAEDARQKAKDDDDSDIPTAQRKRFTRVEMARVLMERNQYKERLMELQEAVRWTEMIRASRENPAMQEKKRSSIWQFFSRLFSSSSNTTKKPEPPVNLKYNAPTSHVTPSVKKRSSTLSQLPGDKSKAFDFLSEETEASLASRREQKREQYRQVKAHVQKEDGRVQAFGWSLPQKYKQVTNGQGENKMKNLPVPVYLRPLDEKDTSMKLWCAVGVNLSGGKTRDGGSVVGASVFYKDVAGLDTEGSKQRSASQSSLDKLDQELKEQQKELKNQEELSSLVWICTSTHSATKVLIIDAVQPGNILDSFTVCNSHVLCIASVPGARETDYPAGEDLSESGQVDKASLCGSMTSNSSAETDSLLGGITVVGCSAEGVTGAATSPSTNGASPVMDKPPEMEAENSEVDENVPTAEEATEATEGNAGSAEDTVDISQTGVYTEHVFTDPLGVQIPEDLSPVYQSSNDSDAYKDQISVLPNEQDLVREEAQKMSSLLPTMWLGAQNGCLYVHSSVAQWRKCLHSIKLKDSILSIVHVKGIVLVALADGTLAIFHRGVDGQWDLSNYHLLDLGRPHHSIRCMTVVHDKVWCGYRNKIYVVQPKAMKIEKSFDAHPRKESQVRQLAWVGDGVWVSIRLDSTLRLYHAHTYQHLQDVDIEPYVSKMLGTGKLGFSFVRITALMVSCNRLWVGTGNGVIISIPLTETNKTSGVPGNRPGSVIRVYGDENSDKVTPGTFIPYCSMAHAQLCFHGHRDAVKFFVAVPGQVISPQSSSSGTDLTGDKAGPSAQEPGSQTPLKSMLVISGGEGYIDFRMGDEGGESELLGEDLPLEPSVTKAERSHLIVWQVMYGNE
Nature of the assay: co-IP; GFP immunoprecipitation (GFP-Trap) from transiently transfected HEK293 wild type cells; quantitative immunoblot.

Protein sequences, listed by entry. Tags and fused reporters are not part of them. Lines headed by an entry give the natural chain unless they say otherwise; changes in a name come on top. Chains listed by the source or under a name are the forms on record and can include a tag or linker.
UniProt Q66K14: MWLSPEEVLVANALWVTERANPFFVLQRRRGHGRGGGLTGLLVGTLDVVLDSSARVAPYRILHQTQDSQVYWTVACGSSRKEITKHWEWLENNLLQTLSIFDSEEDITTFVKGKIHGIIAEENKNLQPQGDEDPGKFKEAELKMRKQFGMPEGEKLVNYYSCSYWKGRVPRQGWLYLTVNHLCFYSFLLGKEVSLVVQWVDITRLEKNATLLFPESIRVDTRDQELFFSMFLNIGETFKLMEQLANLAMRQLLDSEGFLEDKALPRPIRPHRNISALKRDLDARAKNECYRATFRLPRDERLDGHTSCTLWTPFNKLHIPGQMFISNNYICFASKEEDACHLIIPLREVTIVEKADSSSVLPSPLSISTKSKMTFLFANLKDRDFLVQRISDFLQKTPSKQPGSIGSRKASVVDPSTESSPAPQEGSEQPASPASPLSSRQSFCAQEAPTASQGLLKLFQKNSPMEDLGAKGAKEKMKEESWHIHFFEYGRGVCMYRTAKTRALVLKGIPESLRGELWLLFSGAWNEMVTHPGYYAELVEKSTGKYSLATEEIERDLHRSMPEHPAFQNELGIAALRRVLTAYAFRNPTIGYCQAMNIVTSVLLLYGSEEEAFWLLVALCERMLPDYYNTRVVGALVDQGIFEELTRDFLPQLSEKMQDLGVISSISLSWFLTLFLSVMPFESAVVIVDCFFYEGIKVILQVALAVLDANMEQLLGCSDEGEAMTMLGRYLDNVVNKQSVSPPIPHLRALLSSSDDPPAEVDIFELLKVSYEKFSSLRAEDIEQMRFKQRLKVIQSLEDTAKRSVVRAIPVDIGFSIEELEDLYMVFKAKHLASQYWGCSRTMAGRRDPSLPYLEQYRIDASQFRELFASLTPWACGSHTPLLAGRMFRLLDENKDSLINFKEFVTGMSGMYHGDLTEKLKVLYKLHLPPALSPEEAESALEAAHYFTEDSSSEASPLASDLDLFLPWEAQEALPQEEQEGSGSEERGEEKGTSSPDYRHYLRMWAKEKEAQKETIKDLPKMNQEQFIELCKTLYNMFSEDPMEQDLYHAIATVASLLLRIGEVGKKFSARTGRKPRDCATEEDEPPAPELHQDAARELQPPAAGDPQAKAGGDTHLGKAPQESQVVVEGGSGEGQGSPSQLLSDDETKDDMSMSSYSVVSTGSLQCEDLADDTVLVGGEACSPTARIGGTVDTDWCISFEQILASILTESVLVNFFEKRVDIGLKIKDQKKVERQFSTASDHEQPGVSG
UniProt Q01968: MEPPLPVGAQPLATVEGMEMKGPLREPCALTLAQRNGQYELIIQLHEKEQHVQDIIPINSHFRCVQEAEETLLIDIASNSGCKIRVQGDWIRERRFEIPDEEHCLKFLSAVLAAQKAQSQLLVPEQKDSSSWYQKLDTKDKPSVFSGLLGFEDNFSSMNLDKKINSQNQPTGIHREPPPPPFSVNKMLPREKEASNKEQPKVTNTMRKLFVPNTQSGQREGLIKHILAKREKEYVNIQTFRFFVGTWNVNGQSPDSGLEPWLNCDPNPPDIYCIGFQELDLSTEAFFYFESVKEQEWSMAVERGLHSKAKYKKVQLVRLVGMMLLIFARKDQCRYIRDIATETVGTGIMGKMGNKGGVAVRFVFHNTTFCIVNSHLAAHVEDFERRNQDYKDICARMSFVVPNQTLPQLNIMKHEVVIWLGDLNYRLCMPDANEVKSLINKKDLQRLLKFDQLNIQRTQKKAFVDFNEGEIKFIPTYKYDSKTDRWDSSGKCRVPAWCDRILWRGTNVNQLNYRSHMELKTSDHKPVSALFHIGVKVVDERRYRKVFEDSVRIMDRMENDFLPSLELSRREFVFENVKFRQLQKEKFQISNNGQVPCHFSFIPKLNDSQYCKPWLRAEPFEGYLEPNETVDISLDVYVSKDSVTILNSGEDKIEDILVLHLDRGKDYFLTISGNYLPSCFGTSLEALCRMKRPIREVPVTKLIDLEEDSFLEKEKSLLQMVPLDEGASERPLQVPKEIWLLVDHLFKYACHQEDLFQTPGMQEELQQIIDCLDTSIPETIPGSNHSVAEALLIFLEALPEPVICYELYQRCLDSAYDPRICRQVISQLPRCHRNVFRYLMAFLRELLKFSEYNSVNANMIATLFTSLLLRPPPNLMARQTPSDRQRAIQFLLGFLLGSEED
Halo-TMEM55B (Q86T03-2, form named): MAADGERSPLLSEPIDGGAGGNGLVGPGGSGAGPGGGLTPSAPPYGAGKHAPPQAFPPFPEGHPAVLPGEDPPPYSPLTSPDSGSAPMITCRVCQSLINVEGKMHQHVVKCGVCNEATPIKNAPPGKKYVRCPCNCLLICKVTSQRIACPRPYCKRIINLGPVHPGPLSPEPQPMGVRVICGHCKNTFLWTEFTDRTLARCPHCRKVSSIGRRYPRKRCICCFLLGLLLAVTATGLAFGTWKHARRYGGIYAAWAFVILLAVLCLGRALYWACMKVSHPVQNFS
TMEM55B (80-166), untagged, wild type (Q86T03-2, form named): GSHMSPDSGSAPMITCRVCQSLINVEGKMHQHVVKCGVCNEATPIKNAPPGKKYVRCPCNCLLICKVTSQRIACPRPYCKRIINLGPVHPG
TMEM55B (80-166) R151E (Q86T03-2, form named): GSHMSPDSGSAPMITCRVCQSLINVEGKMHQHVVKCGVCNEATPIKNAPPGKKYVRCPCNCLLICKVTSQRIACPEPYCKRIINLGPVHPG

For a further assay, the target named is TBC1D9B (GFP-tagged) (UniProt Q66K14). The assay is described as above.
The target of the next assay is GFP-OCRL (UniProt Q01968). The description is as above.
For a further assay, the target named is T2, JIP3-GFP (UniProt Q9UPT6).
T2 sequence: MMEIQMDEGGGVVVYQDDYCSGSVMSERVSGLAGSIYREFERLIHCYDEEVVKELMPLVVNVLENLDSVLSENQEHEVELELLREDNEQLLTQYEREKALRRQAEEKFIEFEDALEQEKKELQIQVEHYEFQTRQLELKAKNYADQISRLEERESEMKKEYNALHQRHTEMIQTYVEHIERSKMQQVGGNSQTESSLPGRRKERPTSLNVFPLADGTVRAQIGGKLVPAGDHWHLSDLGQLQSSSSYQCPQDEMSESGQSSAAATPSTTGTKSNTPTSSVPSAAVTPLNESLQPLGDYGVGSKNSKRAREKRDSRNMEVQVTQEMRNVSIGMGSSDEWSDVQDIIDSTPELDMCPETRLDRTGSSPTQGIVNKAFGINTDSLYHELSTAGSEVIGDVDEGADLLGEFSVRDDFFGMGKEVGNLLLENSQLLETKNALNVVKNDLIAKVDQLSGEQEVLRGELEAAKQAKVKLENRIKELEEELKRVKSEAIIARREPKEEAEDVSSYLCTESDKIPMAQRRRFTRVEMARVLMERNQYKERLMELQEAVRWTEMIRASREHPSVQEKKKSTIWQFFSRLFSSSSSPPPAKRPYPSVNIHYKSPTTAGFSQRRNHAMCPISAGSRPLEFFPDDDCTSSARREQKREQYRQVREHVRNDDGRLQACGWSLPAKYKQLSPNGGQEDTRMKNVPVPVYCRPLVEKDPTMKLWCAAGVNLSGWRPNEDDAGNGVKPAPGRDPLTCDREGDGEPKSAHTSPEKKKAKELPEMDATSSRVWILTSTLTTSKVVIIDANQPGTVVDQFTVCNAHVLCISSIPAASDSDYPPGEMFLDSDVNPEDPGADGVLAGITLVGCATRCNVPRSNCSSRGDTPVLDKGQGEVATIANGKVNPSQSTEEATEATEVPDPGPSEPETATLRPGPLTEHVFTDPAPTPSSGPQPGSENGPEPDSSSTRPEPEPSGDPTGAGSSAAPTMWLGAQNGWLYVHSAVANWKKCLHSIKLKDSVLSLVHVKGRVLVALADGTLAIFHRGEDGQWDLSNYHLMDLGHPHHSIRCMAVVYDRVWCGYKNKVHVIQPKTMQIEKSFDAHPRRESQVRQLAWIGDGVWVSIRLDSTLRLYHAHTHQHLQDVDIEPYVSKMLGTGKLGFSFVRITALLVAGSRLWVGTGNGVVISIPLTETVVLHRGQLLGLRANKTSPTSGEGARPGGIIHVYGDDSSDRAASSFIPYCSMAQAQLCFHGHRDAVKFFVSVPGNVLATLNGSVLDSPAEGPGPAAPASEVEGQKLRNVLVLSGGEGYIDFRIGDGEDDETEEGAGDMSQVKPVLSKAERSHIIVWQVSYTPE
The description is as above.

Another assay deals with T3, His-OCRL 65-75.
T3 sequence (peptide): GSVQEAEETLLID
The experiment in a line: pull-down; 10μM His-tagged peptide or His-tagged OCRL PH domain as bait on Ni2+-agarose, 10μM untagged TMEM55B as prey; 20 mM Tris pH 8.0, 300 mM NaCl, 20mM imidazole, 10 mM β-mercaptoethanol; Coomassie; both purified.

The target of a further assay is T4, His-RILPL1 391-403.
T4 sequence (peptide): GSGYTEQGQEALQHL
The description is as above.

Another assay concerns the target T5, RILPL1 G396L GFP (UniProt Q5EBL4).
T5 sequence: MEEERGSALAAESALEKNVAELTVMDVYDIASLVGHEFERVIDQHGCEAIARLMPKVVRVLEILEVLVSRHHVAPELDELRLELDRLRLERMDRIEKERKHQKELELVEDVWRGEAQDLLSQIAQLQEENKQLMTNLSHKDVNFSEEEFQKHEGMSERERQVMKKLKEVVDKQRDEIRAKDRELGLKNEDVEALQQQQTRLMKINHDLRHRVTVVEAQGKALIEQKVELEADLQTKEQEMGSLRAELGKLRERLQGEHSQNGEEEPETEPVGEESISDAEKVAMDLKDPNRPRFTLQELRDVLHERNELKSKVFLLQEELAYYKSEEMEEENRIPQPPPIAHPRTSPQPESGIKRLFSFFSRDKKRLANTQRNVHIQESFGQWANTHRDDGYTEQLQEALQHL
The experiment in a line: co-IP; GFP-Trap immunoprecipitation of RILPL1-GFP from HEK293 TMEM55B/A double knock-out cells transfected with HA-Rab8A Q67L and FLAG-LRRK2 Y1699C; quantitative immunoblot. For orientation: In western blotting, separated proteins are transferred to a membrane and probed.

The target of another assay is T6, RILPL1-GFP (UniProt Q5EBL4).
T6 sequence: T5 sequence with L396G
The description is as above.

In the next assay the target is T7, RILPL1 E398K GFP (UniProt Q5EBL4).
T7 sequence: T5 sequence with L396G, E398K
The assay is described as above.

Here are results for four substances from publication doi:10.1101/2025.08.19.670962, “Structural basis for binding of RILPL1 to TMEM55B reveals a lysosomal platform for adaptor assembly through a conserved TBM motif” (bioRxiv, 2025).

Numbering of substitutions follows the chain as printed. These are yes or no findings as the source states them, for the method shown. For part of these data: Binding seen in cells or lysates may run through a third protein. Some binding calls cover weakened binding; strength is not graded here. For part of these data: Where a sequence is shown, tags or fusion partners need not be part of it.

As for “TMEM55B (in HEK293 wild type cells, Figure 4) (from UniProt Q86T03-2 1-284)”, the binding entry with JIP4-GFP, with TBC1D9B (GFP-tagged), in the assay with GFP-OCRL and with JIP3-GFP was “binds” in each case.
On to “TMEM55B (80-166), untagged, wild type (from UniProt Q86T03-2 80-166) (domain or fragment)”, for which the binding entry with His-OCRL 65-75 is reported as “no binding (tested: 10μM)”.
Take “TMEM55B (80-166) R151E (from UniProt Q86T03-2 80-166) (domain or fragment)”: the binding result in the assay with His-RILPL1 391-403 is reported as “no binding (tested: 10μM)”.
On to “Halo-TMEM55B (from UniProt Q86T03-2 1-284)”, for which the binding result is “no binding” in the assay with RILPL1 G396L GFP, “binds” in the assay with RILPL1-GFP and “no binding” with RILPL1 E398K GFP.
